From paper PMC9911399, “Two distinct binding modes provide the RNA-binding protein RbFox with extraordinary sequence specificity”
Numbering of substitutions follows the chain as printed; changes in the protein carry UniProt numbers. The list shows a part of the results.

T1: RBFOX1 RRM (Homo sapiens, UniProt Q9NWB1 109-208)
T1 sequence: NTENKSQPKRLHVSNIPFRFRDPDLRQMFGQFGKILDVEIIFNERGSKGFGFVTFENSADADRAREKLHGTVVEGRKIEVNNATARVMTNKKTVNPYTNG

B1: AAAAUCU (DNA:RNA)
RNA: GGGAGACCGGAAUUCAGAUUGUCCAAAAUCUUUAAAUCCCGUCGUAGCCACCA
DNA 1: CAATCTGAATTCCGGTCTCCC
DNA 2: TGGTGGCTACGACGGGATT
B2: CCACAUC (DNA:RNA)
RNA: B1 RNA with A25C, A26C, A28C, U29A, C30U, U31C
DNA 1: CAATCTGAATTCCGGTCTCCC
DNA 2: TGGTGGCTACGACGGGATT
B3: CAUGGGU (DNA:RNA)
RNA: B1 RNA with A25C, A27U, A28G, U29G, C30G
DNA 1: CAATCTGAATTCCGGTCTCCC
DNA 2: TGGTGGCTACGACGGGATT
B4: GAAAGUG (DNA:RNA)
RNA: B1 RNA with A25G, U29G, C30U, U31G
DNA 1: CAATCTGAATTCCGGTCTCCC
DNA 2: TGGTGGCTACGACGGGATT
B5: CGAGCUG (DNA:RNA)
RNA: B1 RNA with A25C, A26G, A28G, U29C, C30U, U31G
DNA 1: CAATCTGAATTCCGGTCTCCC
DNA 2: TGGTGGCTACGACGGGATT
B6: UAGUCGU (DNA:RNA)
RNA: B1 RNA with A25U, A27G, A28U, U29C, C30G
DNA 1: CAATCTGAATTCCGGTCTCCC
DNA 2: TGGTGGCTACGACGGGATT
B7: AUGCGUU (DNA:RNA)
RNA: B1 RNA with A26U, A27G, A28C, U29G, C30U
DNA 1: CAATCTGAATTCCGGTCTCCC
DNA 2: TGGTGGCTACGACGGGATT
B8: UGACGUG (DNA:RNA)
RNA: B1 RNA with A25U, A26G, A28C, U29G, C30U, U31G
DNA 1: CAATCTGAATTCCGGTCTCCC
DNA 2: TGGTGGCTACGACGGGATT
B9: ACUGCGA (DNA:RNA)
RNA: B1 RNA with A26C, A27U, A28G, U29C, C30G, U31A
DNA 1: CAATCTGAATTCCGGTCTCCC
DNA 2: TGGTGGCTACGACGGGATT
B10: GACGCAA (DNA:RNA)
RNA: B1 RNA with A25G, A27C, A28G, U29C, C30A, U31A
DNA 1: CAATCTGAATTCCGGTCTCCC
DNA 2: TGGTGGCTACGACGGGATT
B11: CUCAGGU (DNA:RNA)
RNA: B1 RNA with A25C, A26U, A27C, U29G, C30G
DNA 1: CAATCTGAATTCCGGTCTCCC
DNA 2: TGGTGGCTACGACGGGATT
B12: GAACAAG (DNA:RNA)
RNA: B1 RNA with A25G, A28C, U29A, C30A, U31G
DNA 1: CAATCTGAATTCCGGTCTCCC
DNA 2: TGGTGGCTACGACGGGATT
B13: CUGGAGU (DNA:RNA)
RNA: B1 RNA with A25C, A26U, A27G, A28G, U29A, C30G
DNA 1: CAATCTGAATTCCGGTCTCCC
DNA 2: TGGTGGCTACGACGGGATT
B14: AGGUCCG (DNA:RNA)
RNA: B1 RNA with A26G, A27G, A28U, U29C, U31G
DNA 1: CAATCTGAATTCCGGTCTCCC
DNA 2: TGGTGGCTACGACGGGATT
B15: CCAAGGC (DNA:RNA)
RNA: B1 RNA with A25C, A26C, U29G, C30G, U31C
DNA 1: CAATCTGAATTCCGGTCTCCC
DNA 2: TGGTGGCTACGACGGGATT
B16: CGCCCUA (DNA:RNA)
RNA: GGGAGACCGGAAUUCAGAUUGUCCCGCCCUAUUAAAUCCCGUCGUAGCCACCA
DNA 1: CAATCTGAATTCCGGTCTCCC
DNA 2: TGGTGGCTACGACGGGATT
B17: GACGGUG (DNA:RNA)
RNA: B16 RNA with C25G, G26A, C28G, C29G, A31G
DNA 1: CAATCTGAATTCCGGTCTCCC
DNA 2: TGGTGGCTACGACGGGATT
B18: ACGGAGC (DNA:RNA)
RNA: B1 RNA with A26C, A27G, A28G, U29A, C30G, U31C
DNA 1: CAATCTGAATTCCGGTCTCCC
DNA 2: TGGTGGCTACGACGGGATT
B19: GGCGUCU (DNA:RNA)
RNA: B1 RNA with A25G, A26G, A27C, A28G
DNA 1: CAATCTGAATTCCGGTCTCCC
DNA 2: TGGTGGCTACGACGGGATT
B20: CGCAAUA (DNA:RNA)
RNA: B16 RNA with C28A, C29A
DNA 1: CAATCTGAATTCCGGTCTCCC
DNA 2: TGGTGGCTACGACGGGATT
B21: GCUGCCA (DNA:RNA)
RNA: B16 RNA with C25G, G26C, C27U, C28G, U30C
DNA 1: CAATCTGAATTCCGGTCTCCC
DNA 2: TGGTGGCTACGACGGGATT
B22: AGGCCAG (DNA:RNA)
RNA: B16 RNA with C25A, C27G, U30A, A31G
DNA 1: CAATCTGAATTCCGGTCTCCC
DNA 2: TGGTGGCTACGACGGGATT
B23: CUGCAAU (DNA:RNA)
RNA: B16 RNA with G26U, C27G, C29A, U30A, A31U
DNA 1: CAATCTGAATTCCGGTCTCCC
DNA 2: TGGTGGCTACGACGGGATT
B24: CGUUCGU (DNA:RNA)
RNA: B16 RNA with C27U, C28U, U30G, A31U
DNA 1: CAATCTGAATTCCGGTCTCCC
DNA 2: TGGTGGCTACGACGGGATT
B25: GUCCCGC (DNA:RNA)
RNA: B16 RNA with C25G, G26U, U30G, A31C
DNA 1: CAATCTGAATTCCGGTCTCCC
DNA 2: TGGTGGCTACGACGGGATT
B26: UUUUGUU (DNA:RNA)
RNA: B1 RNA with A25U, A26U, A27U, A28U, U29G, C30U
DNA 1: CAATCTGAATTCCGGTCTCCC
DNA 2: TGGTGGCTACGACGGGATT
B27: CGCUGCC (DNA:RNA)
RNA: B16 RNA with C28U, C29G, U30C, A31C
DNA 1: CAATCTGAATTCCGGTCTCCC
DNA 2: TGGTGGCTACGACGGGATT
B28: AGGUGAU (DNA:RNA)
RNA: B1 RNA with A26G, A27G, A28U, U29G, C30A
DNA 1: CAATCTGAATTCCGGTCTCCC
DNA 2: TGGTGGCTACGACGGGATT
B29: AUAUCUG (DNA:RNA)
RNA: B1 RNA with A26U, A28U, U29C, C30U, U31G
DNA 1: CAATCTGAATTCCGGTCTCCC
DNA 2: TGGTGGCTACGACGGGATT
B30: AGUCUAA (DNA:RNA)
RNA: B16 RNA with C25A, C27U, C29U, U30A
DNA 1: CAATCTGAATTCCGGTCTCCC
DNA 2: TGGTGGCTACGACGGGATT
B31: GUGUUGU (DNA:RNA)
RNA: B1 RNA with A25G, A26U, A27G, A28U, C30G
DNA 1: CAATCTGAATTCCGGTCTCCC
DNA 2: TGGTGGCTACGACGGGATT

What follows are binders tested against T1, RBFOX1 RRM (assay: EMSA; HiTS-Eq, 1 nM pool, 10 min; buffer printed only for the single-RNA assays: 10 mM Tris pH 7.5, 150 mM NaCl, 3.4 mM EDTA, 0.001% NP-40, 30 C). Details: tags: His6 N-terminal (pET28a); label: 5' 32P.
Procedure, shortened: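 Purified RbFox RRM, wild type or mutant, was incubated for 10 min in 50 µL with 1 nM of a 5′-radiolabelled RNA pool carrying 7 randomized nucleotides, whose flanks were annealed to DNA oligonucleotides, over a series of increasing protein concentrations. Unbound RNA was resolved on 8% native PAGE, cut out, reverse-transcribed, barcoded by PCR and sequenced on an Illumina HiSeq 2500. Relative association constants were derived from changes in read counts for each RNA species versus the control reaction and normalised to the cognate motif.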

| Binder | binding signal |
| --- | --- |
| B1 | 0.000983 KA relative to UGCAUGU |
| B2 | 0.000384 KA relative to UGCAUGU |
| B3 | 0.0086 KA relative to UGCAUGU |
| B4 | 0.014 KA relative to UGCAUGU |
| B5 | 0.0164 KA relative to UGCAUGU |
| B6 | 0.017 KA relative to UGCAUGU |
| B7 | 0.0153 KA relative to UGCAUGU |
| B8 | 0.0227 KA relative to UGCAUGU |
| B9 | 0.0107 KA relative to UGCAUGU |
| B10 | 0.00969 KA relative to UGCAUGU |
| B11 | 0.0115 KA relative to UGCAUGU |
| B12 | 0.00774 KA relative to UGCAUGU |
| B13 | 0.0204 KA relative to UGCAUGU |
| B14 | 0.0111 KA relative to UGCAUGU |
| B15 | 0.00602 KA relative to UGCAUGU |
| B16 | 0.007 KA relative to UGCAUGU |

| Binder | binding signal |
| --- | --- |
| B17 | 0.0233 KA relative to UGCAUGU |
| B18 | 0.0114 KA relative to UGCAUGU |
| B19 | 0.0147 KA relative to UGCAUGU |
| B20 | 0.00289 KA relative to UGCAUGU |
| B21 | 0.0131 KA relative to UGCAUGU |
| B22 | 0.0129 KA relative to UGCAUGU |
| B23 | 0.013 KA relative to UGCAUGU |
| B24 | 0.0195 KA relative to UGCAUGU |
| B25 | 0.0018 KA relative to UGCAUGU |
| B26 | 0.0256 KA relative to UGCAUGU |
| B27 | 0.016 KA relative to UGCAUGU |
| B28 | 0.0113 KA relative to UGCAUGU |
| B29 | 0.00553 KA relative to UGCAUGU |
| B30 | 0.00296 KA relative to UGCAUGU |
| B31 | 0.0196 KA relative to UGCAUGU |
